Experimental data from PubChem BioAssay AID2451 (National Center for Advancing Translational Sciences (NCATS), 2010).
Screen size: about 290,000 compounds; about 2,100 (0.72%) were called active. Inconclusive means that the source gave no clear call. Such entries were picked first, then a sample of the others. The call rests on the fitted dose curve; in most records, active means well fitted inhibition curve with a large enough effect; inconclusive means small, poorly fitted or top-dose-only effect, or effect the other way; inactive means flat fitted curve, though single readings scatter. Potencies of inconclusive entries are doubtful fits and often do not repeat.

target: Fructose-bisphosphate aldolase (Giardia intestinalis (strain ATCC 50803 / WB clone C6)) (UniProt A8B2U2); test: qHTS Assay for Inhibitors of Fructose-1,6-bisphosphate Aldolase from Giardia Lamblia; conditions: purified Giardia FBPA; activity, negative = inhibition: at 59.6 µM (top of the series) unless noted; further: nearly all actives have a fitted effect of over 55% in size
Method in brief: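 40 nM FBPA preincubated 10 min at RT with compound (up to 57.5 uM final), then substrate plus GAPDH/TPI/NAD/arsenate coupling and diaphorase/resazurin added. Fluorescence read after 20 min at RT, 525/598 nm.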
On the % scale 0 is the no-effect control and ±100 the full control effect; potency means the concentration at half of the fitted maximal effect; tags describe the fitted curve by direction and shape.

Sequence of UniProt A8B2U2 (A8B2U2 whole entry, looked up): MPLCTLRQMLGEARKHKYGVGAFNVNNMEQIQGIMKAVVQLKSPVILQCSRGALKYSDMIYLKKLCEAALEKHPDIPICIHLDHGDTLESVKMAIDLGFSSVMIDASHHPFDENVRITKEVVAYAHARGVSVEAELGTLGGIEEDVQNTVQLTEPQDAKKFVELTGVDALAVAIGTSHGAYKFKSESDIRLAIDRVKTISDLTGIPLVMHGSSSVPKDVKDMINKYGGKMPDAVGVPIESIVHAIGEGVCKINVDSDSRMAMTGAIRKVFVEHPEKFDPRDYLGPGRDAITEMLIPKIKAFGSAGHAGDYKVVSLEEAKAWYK

| SMILES | Potency | activity, negative = inhibition |
| --- | --- | --- |
| COC(=O)c1c(NC(C)=O)sc2c1CCN(Cc1ccccc1)C2 | inconclusive: 22.4 µM [inhibitor, partial curve] | – |
| COc1ccc(C(=O)CSc2nc(C)cc(=O)[nH]2)cc1 | inactive | – |
| N#CC1=C(N)C(C#N)(C#N)[C@H](c2c(F)cccc2F)[C@H]2CC3(CC=C12)OCCO3 | inconclusive: 8.91 µM [inhibitor, single point] | – |
| O=C1c2cccc3c(O)ccc(c23)C(=O)N1c1ccc(Cl)cc1 | inconclusive: 20 µM [inhibitor, partial curve] | – |
| CCS(=O)(=O)N1CCN(CC2CC3C=CC2C3)CC1 (stereo not drawn) | inconclusive: 22.3 µM [inhibitor, single point] | – |
| COc1ccc(-c2oc3ccccc3c(=O)c2OC(=O)c2ccc(C)cc2)cc1 | inactive | – |
| O=Nc1onc(-c2ccc([N+](=O)[O-])cc2)c1NO | active: 14.1 µM | – |
| CNC(=S)Nc1cccc2[nH]ncc12 | inactive | – |
| CCC[C@@H](CN[C@@H](CNC)C(C)C)NCCCCc1ccccc1 | inconclusive: 15.8 µM [activator, partial curve] | – |
| O=C1Nc2ccccc2C1Cc1nc2ccccc2c(=O)n1-c1ccccc1 (stereo not drawn) | inconclusive: 15.8 µM [inhibitor, partial curve] | – |
| COc1cc(C2C(C#N)=C(N)Oc3c2ccc2ccccc32)ccc1OCC(=O)Nc1ccc(C)cc1 (stereo not drawn) | inconclusive: 17.7 µM [inhibitor, partial curve] | – |
| Cc1nnc(N/N=C/c2ccccc2O)n1N | active: 7.06 µM | – |
| CCC(=O)Nc1c(C(=O)Nc2ccc3c(c2)OCCO3)oc2ccccc12 | inactive | – |
| CCCN1CCN(CC(=O)Nc2nnc(C)s2)CC1 | active: 7.94 µM | – |
| COc1ccc(/C(C)=N/NC(=O)c2ccncc2)cc1[N+](=O)[O-] | inactive | – |
| CCCn1cnc2cc(NCc3ccccc3O)ccc21 | inactive | – |
| FC(F)(F)c1nc2cc3nc4ccccc4[nH]c3cc2n1 | inconclusive: 15.8 µM [inhibitor, single point] | – |
| O=C(NN1S(=O)(=O)c2ccccc2S1(=O)=O)c1ccc(Br)cc1 | inconclusive: 25.1 µM [inhibitor, single point] | – |
| c1ccc2c(SCc3cn4cccnc4n3)ncnc2c1 | inconclusive: 19.9 µM [inhibitor, partial curve] | – |
| CCNc1ncc2nc(C)c(=O)n(CCc3ccccc3)c2n1 | inactive | – |
| COc1ccc(Br)cc1/C=C/C(=O)Nc1ccc2ccccc2c1 | inactive | – |
| CC1CCN(S(=O)(=O)c2cccc3cccnc23)CC1 | inconclusive: 20 µM [inhibitor, partial curve] | – |
| Cc1c(C(=O)N2CCc3ccccc3C2)sc2nc(-c3ccccc3)cn12 | inactive | – |
| CCN(CC(=O)NCc1cccs1)C(=O)c1ccc(S(=O)(=O)Nc2cccc(C)c2C)cc1 | inactive | – |
| CNC(=O)c1c(C)[nH]c(=S)c(C#N)c1-c1ccco1 | active: 12.6 µM | – |
| CC(=O)Nc1ccc(S(=O)(=O)Nc2nccc(C)n2)cc1 | inconclusive: 35.5 µM [inhibitor, single point] | – |

| SMILES | Potency | activity, negative = inhibition |
| --- | --- | --- |
| COc1cccc(CC(NC(C)=O)C(=O)NC2CCN(S(=O)(=O)c3ccc(F)cc3)CC2)c1OC (stereo not drawn) | inactive | – |
| CCOc1ccccc1NC(=O)c1cc(C(=O)Nc2ccccc2OCC)cc(N2C(=O)CCC2=O)c1 | inactive | – |
| CN(C)c1cc(N/N=C/c2ccc(Cl)cc2)nc(N(C)C)n1 | inconclusive: 0.561 µM [inhibitor, full curve] | – |
| COc1ccc(C(C[N+](=O)[O-])c2c(-c3ccccc3)cc3ccccn23)c(OC)c1 (stereo not drawn) | inconclusive: 12.6 µM [inhibitor, partial curve] | – |
| COc1ccc(CN2CCN(C(=O)CC(C)C)CC2)c(OC)c1OC | inconclusive: 17.7 µM [inhibitor, single point] | – |
| CC(C)CNC(C(=O)Nc1ccc([N+](=O)[O-])cc1Br)c1ccccc1 (stereo not drawn) | inconclusive: 22.3 µM [inhibitor, partial curve] | – |
| COc1cccc(N2CCN(CC(=O)Nc3nc(C)c(C(=O)N(C)C)s3)CC2)c1 | inconclusive: 6.31 µM [inhibitor, partial curve] | – |
| CCOP(=O)(C1=C(O)C(=O)C(C(C)(C)C)=CC1=O)c1ccccc1 (stereo not drawn) | inconclusive: 15.8 µM [inhibitor, partial curve] | – |
| O=C(NC(C(=O)c1ccccc1)n1c(=O)cc[nH]c1=S)c1ccccc1 (stereo not drawn) | inconclusive: 17.7 µM [inhibitor, partial curve] | – |
| COc1cccc(NS(=O)(=O)c2ccc3c(c2)NC(=O)C(C)S3)c1 (stereo not drawn) | inactive | – |
| CCOC(=O)c1c(NC(=O)CC)sc2c1CCN(Cc1ccccc1)C2 | active: 11.2 µM | – |
| N#CC1=C(Nc2ccc(Br)cc2)CCC1 | inconclusive: 17.7 µM [inhibitor, partial curve] | – |
| CCOC(=O)CNc1ccc2c(c1)OCO2 | inconclusive: 15.8 µM [inhibitor, partial curve] | – |
| O=C1c2ccccc2NC(c2ccc(-c3cccc([N+](=O)[O-])c3)o2)N1O (stereo not drawn) | inconclusive: 7.06 µM [inhibitor, full curve] | – |
| CC1(C)CC(=O)c2sc(NC(=O)CN3C(=O)CCC3=O)nc2C1 | inactive | – |
| O=C(N/N=C/c1ccc(-c2cccc(C(F)(F)F)c2)o1)c1ccccc1Br | inactive | – |
| O=C(Nc1cc(N2CCOCC2)ncn1)NC1(C(F)(F)F)Oc2ccc(Cl)cc2O1 (stereo not drawn) | inconclusive: 22.4 µM [inhibitor, partial curve] | – |
| Cc1cccc(OCCn2c(NC(=O)c3ccco3)nc3ccccc32)c1 | inactive | – |
| CCOC(=O)N1CCN(C(=S)NC(=O)c2ccc(F)cc2)CC1 | inconclusive: 17.7 µM [inhibitor, partial curve] | – |
| COc1ccc2nc(N3CCCC(C(=O)NCCc4ccc(OC)c(OC)c4)C3)sc2c1 (stereo not drawn) | inactive | – |
| O=C(NCCCn1ccnc1)C1CCN(S(=O)(=O)c2ccc(F)cc2)CC1 | inactive | – |
| OC(CON=C1c2ccccc2-c2ccccc21)CN1CCNCC1 (stereo not drawn) | inconclusive: 15.8 µM [inhibitor, partial curve] | – |
| COc1cc(C(=O)Nc2ccc(C)cc2)c2ccccc2n1 | inactive | – |
| Cc1nnc(SCC(=O)NC(=O)NCc2ccco2)s1 | inactive | – |
| COc1ccc(CSCC(=O)N/N=C/c2ccccc2OCc2ccccc2)cc1 | inconclusive: 19.9 µM [inhibitor, single point] | – |
| COc1ccccc1CNC(=O)CNCC1CCCO1 (stereo not drawn) | inconclusive: 14.1 µM [inhibitor, partial curve] | – |

| SMILES | Potency | activity, negative = inhibition |
| --- | --- | --- |
| CCOC(=O)c1c(-c2ccc(-c3ccccc3)cc2)csc1NC(=O)CNCCN(C)C | – | inconclusive: 32.2% [activator] |
| O/C(=C\c1nc2ccccc2[nH]1)c1cccs1 | inconclusive: 14.1 µM [inhibitor, partial curve] | – |
| O=C(c1ccccc1)C(Sc1ncn[nH]1)c1ccccc1 (stereo not drawn) | inconclusive: 17.7 µM [inhibitor, partial curve] | – |
| CCN1CCN(C(=O)C(C)Nc2cc(Cl)c(OC)cc2OC)CC1 (stereo not drawn) | inconclusive: 5 µM [inhibitor, partial curve] | – |
| O=C(N/N=C/c1ccccn1)C(O)c1ccccc1 (stereo not drawn) | inconclusive: 25.1 µM [inhibitor, partial curve] | – |
| CCc1ccc(NC(=O)Cc2ccc(-n3cccc3)cc2)cc1 | inactive | – |
| COc1ccc(NC(=O)COC(=O)/C=C/C(=O)OCC(=O)Nc2ccc(OC)c(Cl)c2)cc1Cl | inactive | – |
| COC(=O)/C=C1/S/C(=N/NC(=O)c2ccc(Cl)cc2Cl)NC1=O | inconclusive: 15.8 µM [inhibitor, partial curve] | – |
| CC(C)(C)c1cc(CN(CCO)CCO)cc(C(C)(C)C)c1O | inconclusive: 17.7 µM [inhibitor, single point] | – |
| COc1cccc2sc(NNC(=O)c3nc4ccccc4s3)nc12 | inconclusive: 19.9 µM [inhibitor, single point] | – |
| CCc1ccccc1NC(=O)C(Cc1ccccc1)c1nn[nH]n1 (stereo not drawn) | inconclusive: 14.1 µM [inhibitor, partial curve] | – |
| Fc1cccc(CSc2nc3ncccc3[nH]2)c1 | inactive | – |
| CC(NC(=O)CCn1c(=S)[nH]c2ccsc2c1=O)c1ccccc1 (stereo not drawn) | inconclusive: 17.7 µM [inhibitor, single point] | – |
| CC1(C)CC(c2nc(-c3ccc(Cl)cc3)cs2)CCS1 (stereo not drawn) | inactive | – |
| COC(CNS(=O)(=O)c1ccc(Cl)cc1)c1ccccc1 (stereo not drawn) | inactive | – |
| CCCC(=O)C1C(=O)CC(C)(C)C(c2cc(C)no2)C1=O (stereo not drawn) | inactive | – |
| COc1ccc(NC(=O)c2nc3nccc(C)n3n2)cn1 | inactive | – |
| O=C(O)CCCN1C(=O)/C(=C\c2ccc(-c3nc4ccccc4s3)o2)SC1=S | inconclusive: 22.3 µM [inhibitor, single point] | – |
| CN(C)CC(C)(C)CNC(=S)NCc1ccc2c(c1)OCO2 | inconclusive: 12.6 µM [inhibitor, partial curve] | – |
| O=C(Cc1ccc(Cl)c(Cl)c1)OCC(=O)c1ccc[nH]1 | inactive | – |
| Cc1cc(-n2c(C)cc(C(=O)CN3C(=O)NC4(CCCCCC4)C3=O)c2C)no1 | inactive | – |
| CCNS(=O)(=O)c1ccc(CCC(=O)Nc2ccc3c(c2)OCCO3)cc1 | inactive | – |
| CC1CCc2sc(NC(=O)C3CC(Cl)=CCC3C(=O)O)c(C#N)c2C1 (stereo not drawn) | inconclusive: 17.7 µM [activator, single point] | – |
| CN(C1CCCCC1)C(CNS(=O)(=O)c1ccc(Cl)cc1)c1ccccc1 (stereo not drawn) | inactive | – |
| COC(=O)c1sc(=S)sc1C(=O)OC | inactive | – |
| CC1CN(CCOc2ccccc2C(C)C)CC(C)O1 (stereo not drawn) | inconclusive: 28.2 µM [inhibitor, single point] | – |
